{"source": "paper PMC10167348", "about": "“Structural mechanisms of TRPM7 activation and inhibition” (Nature Communications, 2023)", "test_in_all_cases": "Aequorin-based Ca2+ influx assay, activation by naltriben", "assay_type_in_all_cases": "cell-based", "conditions_in_all_cases": "replicate values", "key": {"TRPM7-S744A": {"molecular_target": "T1, TRPM7-S744A (Mus musculus, UniProt Q923J1, S744A)", "T1 construct": "expressed in transfected cells; host or cells: HEK 293T", "T1 sequence (Q923J1 whole entry S744A)": "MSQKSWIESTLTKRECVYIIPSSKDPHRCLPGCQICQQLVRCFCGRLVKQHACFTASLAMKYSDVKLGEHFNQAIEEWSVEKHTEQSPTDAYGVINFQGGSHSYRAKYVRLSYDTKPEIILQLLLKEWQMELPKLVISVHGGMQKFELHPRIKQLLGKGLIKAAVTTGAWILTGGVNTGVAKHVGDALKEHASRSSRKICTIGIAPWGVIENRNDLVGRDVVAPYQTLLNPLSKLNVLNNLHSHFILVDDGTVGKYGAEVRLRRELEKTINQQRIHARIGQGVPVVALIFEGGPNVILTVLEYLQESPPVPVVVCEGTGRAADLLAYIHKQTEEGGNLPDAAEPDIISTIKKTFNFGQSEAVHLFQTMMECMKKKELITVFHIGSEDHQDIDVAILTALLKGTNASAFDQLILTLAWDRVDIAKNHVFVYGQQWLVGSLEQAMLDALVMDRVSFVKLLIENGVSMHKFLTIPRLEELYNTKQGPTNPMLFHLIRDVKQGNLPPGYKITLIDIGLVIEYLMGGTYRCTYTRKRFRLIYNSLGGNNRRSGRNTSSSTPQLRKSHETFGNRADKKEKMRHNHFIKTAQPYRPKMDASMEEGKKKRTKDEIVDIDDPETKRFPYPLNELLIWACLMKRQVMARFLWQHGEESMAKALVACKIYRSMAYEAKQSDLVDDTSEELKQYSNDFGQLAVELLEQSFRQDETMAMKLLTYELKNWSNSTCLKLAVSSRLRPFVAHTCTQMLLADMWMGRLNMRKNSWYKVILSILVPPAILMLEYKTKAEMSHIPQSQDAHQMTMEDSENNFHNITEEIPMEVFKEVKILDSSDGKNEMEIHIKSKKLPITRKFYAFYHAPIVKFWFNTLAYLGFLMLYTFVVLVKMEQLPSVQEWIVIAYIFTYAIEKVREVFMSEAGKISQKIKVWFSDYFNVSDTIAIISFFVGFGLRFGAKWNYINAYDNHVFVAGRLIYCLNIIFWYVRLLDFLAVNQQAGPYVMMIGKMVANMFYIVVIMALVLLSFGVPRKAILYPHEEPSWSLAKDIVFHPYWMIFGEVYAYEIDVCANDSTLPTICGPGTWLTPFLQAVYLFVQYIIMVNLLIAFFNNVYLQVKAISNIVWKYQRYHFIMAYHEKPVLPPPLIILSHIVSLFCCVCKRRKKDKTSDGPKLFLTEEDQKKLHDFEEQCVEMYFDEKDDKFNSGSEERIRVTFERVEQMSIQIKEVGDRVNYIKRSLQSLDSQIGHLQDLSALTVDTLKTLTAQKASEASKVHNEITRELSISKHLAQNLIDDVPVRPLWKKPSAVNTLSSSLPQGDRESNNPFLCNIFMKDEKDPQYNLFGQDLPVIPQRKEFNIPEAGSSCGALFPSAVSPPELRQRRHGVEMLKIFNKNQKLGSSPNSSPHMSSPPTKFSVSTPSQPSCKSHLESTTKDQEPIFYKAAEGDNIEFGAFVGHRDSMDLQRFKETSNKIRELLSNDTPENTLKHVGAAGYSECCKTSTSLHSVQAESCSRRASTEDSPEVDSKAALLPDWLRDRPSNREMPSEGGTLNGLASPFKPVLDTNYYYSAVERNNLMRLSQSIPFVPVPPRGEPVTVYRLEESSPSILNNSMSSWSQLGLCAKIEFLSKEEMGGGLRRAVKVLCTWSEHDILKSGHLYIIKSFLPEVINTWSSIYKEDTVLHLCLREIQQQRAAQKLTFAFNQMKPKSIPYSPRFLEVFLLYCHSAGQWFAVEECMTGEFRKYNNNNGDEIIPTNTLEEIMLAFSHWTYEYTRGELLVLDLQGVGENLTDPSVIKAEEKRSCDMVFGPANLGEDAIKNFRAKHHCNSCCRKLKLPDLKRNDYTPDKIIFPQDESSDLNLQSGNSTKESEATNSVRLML", "protocol": "(§1) Measurements of [Ca^2+]i were performed as reported previously with several modifications[2],[52],[54]. HEK 293T cells (mycoplasma test negative, ATCC #CRL3216) were maintained at 37 °C and 5% CO2 in DMEM supplemented with 10% fetal calf serum, 100 µg/ml streptomycin and 100 U/ml penicillin (all from Thermo Fisher Scientific). Cells cultured in six-well plates (~60% confluence) were transfected with 2 µg/dish Trpm7 plasmid DNA and 0.1 µg/dish pG5A plasmid DNA encoding eGFP fused to Aequorea victoria aequorin, using Lipofectamine 2000 (Thermo Fisher Scientific). Twenty-four hours after transfection, the cells were washed with Mg^2+-free HEPES-buffered saline (Mg^2+-free HBS) containing 140 mM NaCl, 6 mM KCl, 0.5 mM CaCl2, 10 mM HEPES (pH 7.4) and 5 mM glucose, and mechanically resuspended in the Mg^2+-free HBS. For reconstitution of aequorin, cell suspensions were incubated with 5 µM coelenterazine (Biaffin GmbH) in the Mg^2+-free HBS for 30 min at room temperature. Cells were washed twice by centrifugation at 600 rpm for 5 min (Heraeus Pico 17 microcentrifuge, Thermo Fisher Scientific), resuspended in the Mg^2+-free HBS and aliquoted into 96-well plates (1 × 10^5 cells per well). Luminescence was detected at room temperature using a FLUOstar OPTIMA microplate reader (BMG LABTECH GmbH). To monitor the NS8593- and VER155008-induced inhibition of TRPM7-mediated Ca^2+ influx, the extracellular concentration of Ca^2+ was increased to 5 mM by injecting the CaCl2-containing Mg^2+-free HBS in the absence or presence of the inhibitors. […] To study activation by naltriben, TRPM7-transfected cells were exposed to Mg^2+-free HBS containing different concentrations of the agonist. The experiments were terminated by lysing cells with 0.1% (v/v) Triton X-100 in the Mg^2+-free HBS to record the total bioluminescence. The bioluminescence rates (counts/s) were analyzed at 1-s intervals and calibrated as [Ca^2+]i values using the following equation:1 p[Ca^2+]i=0.332588(−log(k))+5.5593 where k represents the rate of aequorin consumption, i.e., counts/s divided by the total number of counts.\n(§2) To determine the IC50 values for NS8593 and VER155008 (EC50 for naltriben), the data were fitted with the following logistic equation:2 Ec=Emin+Emax+Emin/1+c^h/IC50^h where E(c) is the functional effect at the concentration c of the compound, Emin is the minimal effect, Emax is the maximal effect, IC50 (EC50) is the concentration of the compound that produces the half-maximal effect, and h is the Hill coefficient. Fitting of dose-response curves was performed using GraphPad Prism 8.4.0. Data are presented as the mean ± SEM."}, "TRPM7-L671A": {"molecular_target": "T2, TRPM7-L671A (Mus musculus, UniProt Q923J1, L671A)", "T2 construct": "expressed in transfected cells; host or cells: HEK 293T", "T2 sequence (Q923J1 whole entry L671A)": "as the sequence (Q923J1 whole entry S744A) above, with L671A, A744S counted along it", "protocol": "as §1, §2"}, "TRPM7-N752K": {"molecular_target": "T3, TRPM7-N752K (Mus musculus, UniProt Q923J1, N752K)", "T3 construct": "expressed in transfected cells; host or cells: HEK 293T", "T3 sequence (Q923J1 whole entry N752K)": "as the sequence (Q923J1 whole entry S744A) above, with A744S, N752K counted along it", "protocol": "as §1, §2"}, "TRPM7-L671A/N752K": {"molecular_target": "T4, TRPM7-L671A/N752K (Mus musculus, UniProt Q923J1, L671A/N752K)", "T4 construct": "expressed in transfected cells; host or cells: HEK 293T", "T4 sequence (Q923J1 whole entry L671A/N752K)": "as the sequence (Q923J1 whole entry S744A) above, with L671A, A744S, N752K counted along it", "protocol": "as §1, §2"}, "TRPM7 WT": {"molecular_target": "T5, TRPM7 WT (Mus musculus, UniProt Q923J1)", "T5 construct": "expressed in transfected cells; host or cells: HEK 293T", "T5 sequence (Q923J1 whole entry)": "as the sequence (Q923J1 whole entry S744A) above, with A744S counted along it", "protocol": "as §1, §2"}}, "note": "Where “and” joins values, the source holds several entries; their conditions need not be identical. Identical values can stand only once. This continues a long series; more values of the same kind are listed elsewhere."}
{"smiles": "Oc1ccc2c3c1O[C@H]1c4oc5ccccc5c4C[C@@]4(O)[C@@H](C2)N(CC2CC2)CC[C@]314", "note": "[Naltriben, naltriben]", "values": [{"measurement": "TRPM7 activation, fold", "setting": "TRPM7-S744A; [Naltriben] 10 µM", "value": "1.12 fold and 1.19 fold and 1.07 fold and 1.01 fold"}, {"measurement": "TRPM7 activation, fold", "setting": "TRPM7-S744A; [Naltriben] 20 µM", "value": "1.20 fold and 1.38 fold and 1.17 fold and 1.13 fold"}, {"measurement": "TRPM7 activation, fold", "setting": "TRPM7-S744A; [Naltriben] 30 µM", "value": "1.46 fold and 1.58 fold and 1.40 fold and 1.28 fold"}, {"measurement": "TRPM7 activation, fold", "setting": "TRPM7-S744A; [Naltriben] 40 µM", "value": "1.64 fold and 1.74 fold and 1.55 fold and 1.62 fold"}, {"measurement": "TRPM7 activation, fold", "setting": "TRPM7-S744A; [Naltriben] 50 µM", "value": "1.84 fold and 1.89 fold and 1.78 fold and 1.66 fold"}, {"measurement": "TRPM7 activation, fold", "setting": "TRPM7-S744A; [Naltriben] 100 µM", "value": "2.28 fold and 2.37 fold and 2.20 fold and 1.98 fold"}, {"measurement": "TRPM7 activation, fold", "setting": "TRPM7-S744A; [Naltriben] 200 µM", "value": "2.80 fold and 2.90 fold and 2.64 fold and 2.45 fold"}, {"measurement": "TRPM7 activation, fold", "setting": "TRPM7-S744A; [Naltriben] 300 µM", "value": "2.94 fold and 3.21 fold and 2.75 fold and 2.67 fold"}, {"measurement": "TRPM7 activation, fold", "setting": "TRPM7-S744A; [Naltriben] 400 µM", "value": "2.98 fold and 3.28 fold and 2.68 fold and 2.87 fold"}, {"measurement": "TRPM7 activation, fold", "setting": "TRPM7-S744A; [Naltriben] 500 µM", "value": "2.34 fold and 3.39 fold and 2.98 fold and 2.81 fold"}, {"measurement": "TRPM7 activation, fold", "setting": "TRPM7-L671A; [Naltriben] 10 µM", "value": "0.98 fold and 0.86 fold and 0.97 fold"}, {"measurement": "TRPM7 activation, fold", "setting": "TRPM7-L671A; [Naltriben] 20 µM", "value": "1.00 fold and 0.86 fold and 1.08 fold"}, {"measurement": "TRPM7 activation, fold", "setting": "TRPM7-L671A; [Naltriben] 30 µM", "value": "1.12 fold and 0.94 fold and 1.03 fold"}, {"measurement": "TRPM7 activation, fold", "setting": "TRPM7-L671A; [Naltriben] 40 µM", "value": "1.09 fold and 1.06 fold and 1.04 fold"}, {"measurement": "TRPM7 activation, fold", "setting": "TRPM7-L671A; [Naltriben] 50 µM", "value": "1.24 fold and 1.17 fold and 1.14 fold"}, {"measurement": "TRPM7 activation, fold", "setting": "TRPM7-L671A; [Naltriben] 100 µM", "value": "1.77 fold and 1.84 fold and 1.54 fold"}, {"measurement": "TRPM7 activation, fold", "setting": "TRPM7-L671A; [Naltriben] 200 µM", "value": "2.16 fold and 2.06 fold and 1.99 fold"}, {"measurement": "TRPM7 activation, fold", "setting": "TRPM7-L671A; [Naltriben] 300 µM", "value": "2.55 fold and 2.39 fold and 2.20 fold"}, {"measurement": "TRPM7 activation, fold", "setting": "TRPM7-L671A; [Naltriben] 400 µM", "value": "2.94 fold and 2.31 fold and 2.40 fold"}, {"measurement": "TRPM7 activation, fold", "setting": "TRPM7-L671A; [Naltriben] 500 µM", "value": "2.80 fold and 2.64 fold and 2.55 fold"}, {"measurement": "TRPM7 activation, fold", "setting": "TRPM7-N752K; [Naltriben] 10 µM", "value": "0.98 fold and 0.99 fold (2×)"}, {"measurement": "TRPM7 activation, fold", "setting": "TRPM7-N752K; [Naltriben] 20 µM", "value": "1.10 fold and 1.05 fold and 1.04 fold"}, {"measurement": "TRPM7 activation, fold", "setting": "TRPM7-N752K; [Naltriben] 30 µM", "value": "1.15 fold and 1.11 fold and 1.00 fold"}, {"measurement": "TRPM7 activation, fold", "setting": "TRPM7-N752K; [Naltriben] 40 µM", "value": "1.20 fold and 1.14 fold and 1.27 fold"}, {"measurement": "TRPM7 activation, fold", "setting": "TRPM7-N752K; [Naltriben] 50 µM", "value": "1.30 fold and 1.08 fold and 1.41 fold"}, {"measurement": "TRPM7 activation, fold", "setting": "TRPM7-N752K; [Naltriben] 100 µM", "value": "1.63 fold and 1.42 fold and 1.62 fold"}, {"measurement": "TRPM7 activation, fold", "setting": "TRPM7-N752K; [Naltriben] 200 µM", "value": "2.39 fold and 2.25 fold and 2.30 fold"}, {"measurement": "TRPM7 activation, fold", "setting": "TRPM7-N752K; [Naltriben] 300 µM", "value": "3.09 fold and 2.81 fold and 2.86 fold"}, {"measurement": "TRPM7 activation, fold", "setting": "TRPM7-N752K; [Naltriben] 400 µM", "value": "3.30 fold and 2.98 fold and 2.99 fold"}, {"measurement": "TRPM7 activation, fold", "setting": "TRPM7-N752K; [Naltriben] 500 µM", "value": "3.34 fold and 3.09 fold and 3.18 fold"}, {"measurement": "TRPM7 activation, fold", "setting": "TRPM7-L671A/N752K; [Naltriben] 10 µM", "value": "1.45 fold and 1.00 fold (2×) and 1.20 fold"}, {"measurement": "TRPM7 activation, fold", "setting": "TRPM7-L671A/N752K; [Naltriben] 20 µM", "value": "1.02 fold and 0.91 fold and 0.89 fold and 0.95 fold"}, {"measurement": "TRPM7 activation, fold", "setting": "TRPM7-L671A/N752K; [Naltriben] 30 µM", "value": "1.09 fold and 0.89 fold and 0.92 fold and 0.98 fold"}, {"measurement": "TRPM7 activation, fold", "setting": "TRPM7-L671A/N752K; [Naltriben] 40 µM", "value": "1.10 fold and 0.85 fold and 0.92 fold and 0.96 fold"}, {"measurement": "TRPM7 activation, fold", "setting": "TRPM7-L671A/N752K; [Naltriben] 50 µM", "value": "1.13 fold and 0.91 fold and 0.96 fold and 1.00 fold"}, {"measurement": "TRPM7 activation, fold", "setting": "TRPM7-L671A/N752K; [Naltriben] 100 µM", "value": "1.32 fold and 1.04 fold (2×) and 1.13 fold"}, {"measurement": "TRPM7 activation, fold", "setting": "TRPM7-L671A/N752K; [Naltriben] 200 µM", "value": "1.89 fold and 1.31 fold and 1.45 fold and 1.35 fold"}, {"measurement": "TRPM7 activation, fold", "setting": "TRPM7-L671A/N752K; [Naltriben] 300 µM", "value": "2.47 fold and 1.57 fold and 1.69 fold and 1.74 fold"}, {"measurement": "TRPM7 activation, fold", "setting": "TRPM7-L671A/N752K; [Naltriben] 400 µM", "value": "2.54 fold and 1.61 fold and 1.91 fold and 1.97 fold"}, {"measurement": "TRPM7 activation, fold", "setting": "TRPM7-L671A/N752K; [Naltriben] 500 µM", "value": "2.66 fold and 1.73 fold and 2.02 fold and 2.17 fold"}, {"measurement": "TRPM7 activation, fold", "setting": "TRPM7 WT; [Naltriben] 10 µM", "value": "1.19 fold and 1.14 fold and 1.17 fold and 1.15 fold and 1.31 fold and 1.41 fold"}, {"measurement": "TRPM7 activation, fold", "setting": "TRPM7 WT; [Naltriben] 20 µM", "value": "1.77 fold and 1.35 fold and 1.40 fold and 1.23 fold and 1.98 fold and 2.06 fold"}, {"measurement": "TRPM7 activation, fold", "setting": "TRPM7 WT; [Naltriben] 30 µM", "value": "1.96 fold and 1.81 fold and 1.78 fold and 1.93 fold and 2.40 fold and 2.35 fold"}, {"measurement": "TRPM7 activation, fold", "setting": "TRPM7 WT; [Naltriben] 40 µM", "value": "2.43 fold and 1.86 fold and 1.85 fold and 1.83 fold and 2.64 fold and 2.80 fold"}, {"measurement": "TRPM7 activation, fold", "setting": "TRPM7 WT; [Naltriben] 50 µM", "value": "2.78 fold and 2.42 fold and 2.07 fold and 2.38 fold and 2.47 fold and 2.97 fold"}]}
